Holding throughout (test): co-IP; HEK-293T co-transfected with GFP, GFP-USP49Long or GFP-USP49Short (or USP49 mutants) and the FLAG-tagged partner; lysed 24 h later in co-IP buffer (150 mM NaCl, 20 mM Tris-HCl pH 7.4, 1% NP-40, 1 mM MgCl2) with Benzonase; immunoprecipitation with anti-FLAG, control IgG or anti-CETN3 on Dynabeads Protein G; western blot
On the technique in general: Immunoblotting shows a protein as a band on a membrane.

Sequences of proteins named here, by UniProt entry; tags and fusion partners are left off.
UniProt Q12798: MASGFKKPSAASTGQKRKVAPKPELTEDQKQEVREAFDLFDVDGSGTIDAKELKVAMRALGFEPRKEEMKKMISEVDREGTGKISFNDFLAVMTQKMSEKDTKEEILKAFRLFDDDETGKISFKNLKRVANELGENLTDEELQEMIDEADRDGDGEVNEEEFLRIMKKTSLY
UniProt P41208: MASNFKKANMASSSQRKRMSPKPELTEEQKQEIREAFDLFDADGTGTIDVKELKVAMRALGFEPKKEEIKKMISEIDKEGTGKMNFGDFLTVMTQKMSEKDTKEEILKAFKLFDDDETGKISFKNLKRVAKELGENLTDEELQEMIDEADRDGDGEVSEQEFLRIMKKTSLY

In one experiment the target is CETN1-FLAG (human) (UniProt Q12798).
The next experiment has as its target CETN2-FLAG (human) (UniProt P41208).
The target in another experiment is T1, USP44-FLAG-HA (UniProt Q9H0E7).
T1 sequence: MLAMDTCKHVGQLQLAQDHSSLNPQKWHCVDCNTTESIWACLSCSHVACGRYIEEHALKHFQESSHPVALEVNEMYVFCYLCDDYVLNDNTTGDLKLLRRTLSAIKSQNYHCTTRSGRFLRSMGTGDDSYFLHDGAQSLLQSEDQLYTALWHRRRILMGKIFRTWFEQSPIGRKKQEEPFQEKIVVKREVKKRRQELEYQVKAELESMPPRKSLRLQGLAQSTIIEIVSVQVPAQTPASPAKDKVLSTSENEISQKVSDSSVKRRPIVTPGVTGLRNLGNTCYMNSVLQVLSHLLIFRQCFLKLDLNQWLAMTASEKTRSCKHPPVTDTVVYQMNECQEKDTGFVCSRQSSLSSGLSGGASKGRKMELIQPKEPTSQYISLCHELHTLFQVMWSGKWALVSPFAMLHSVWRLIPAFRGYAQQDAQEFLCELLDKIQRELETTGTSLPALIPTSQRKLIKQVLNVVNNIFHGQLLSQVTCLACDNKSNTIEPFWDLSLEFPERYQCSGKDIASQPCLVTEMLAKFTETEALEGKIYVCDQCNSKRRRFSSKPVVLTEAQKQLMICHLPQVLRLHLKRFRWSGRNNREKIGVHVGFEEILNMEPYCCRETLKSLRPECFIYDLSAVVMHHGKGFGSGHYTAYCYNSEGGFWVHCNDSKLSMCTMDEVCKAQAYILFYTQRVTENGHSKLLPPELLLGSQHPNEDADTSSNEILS

For the next experiment, the target named is T2, CETN3-FLAG (human) (UniProt O15182).
T2 sequence: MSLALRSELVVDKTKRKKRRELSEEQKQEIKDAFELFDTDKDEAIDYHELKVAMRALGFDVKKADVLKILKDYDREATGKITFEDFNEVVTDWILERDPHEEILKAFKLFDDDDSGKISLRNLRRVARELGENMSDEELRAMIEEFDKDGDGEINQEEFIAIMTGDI

The target of another experiment is T3, RPN1-FLAG (ribophorin 1) (UniProt P04843).
T3 sequence: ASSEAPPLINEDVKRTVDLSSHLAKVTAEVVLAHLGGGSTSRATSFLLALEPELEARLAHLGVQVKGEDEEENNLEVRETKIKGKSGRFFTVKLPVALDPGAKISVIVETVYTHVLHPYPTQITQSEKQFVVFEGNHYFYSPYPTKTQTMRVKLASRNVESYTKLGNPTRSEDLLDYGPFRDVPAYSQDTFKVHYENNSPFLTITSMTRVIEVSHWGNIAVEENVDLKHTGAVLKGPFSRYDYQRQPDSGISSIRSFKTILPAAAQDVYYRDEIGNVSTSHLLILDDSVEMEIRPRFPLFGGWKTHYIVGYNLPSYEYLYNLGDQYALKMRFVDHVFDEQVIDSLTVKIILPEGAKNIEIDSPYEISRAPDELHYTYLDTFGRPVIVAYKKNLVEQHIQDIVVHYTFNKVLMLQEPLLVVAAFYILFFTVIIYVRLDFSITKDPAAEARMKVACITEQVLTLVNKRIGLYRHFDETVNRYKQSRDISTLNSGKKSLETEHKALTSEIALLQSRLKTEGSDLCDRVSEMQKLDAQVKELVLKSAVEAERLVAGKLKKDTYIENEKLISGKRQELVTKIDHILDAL

Here are results for four molecules from paper PMC9879932.

No constants are given. Whether binding was seen depends on the method and setting. Binding seen in cells or lysates may run through a third protein. Some results given as binding are weak or reduced against the parent protein; the word gives no strength. Where a sequence is shown, tags or fusion partners need not be part of it.

B1: GFP-USP49Long (pCDH-GFP-USP49Long) (enzyme, UniProt Q70CQ1 1-688)
chain: MDRCKHVGRLRLAQDHSILNPQKWCCLECATTESVWACLKCSHVACGRYIEDHALKHFEETGHPLAMEVRDLYVFCYLCKDYVLNDNPEGDLKLLRSSLLAVRGQKQDTPVRRGRTLRSMASGEDVVLPQRAPQGQPQMLTALWYRRQRLLARTLRLWFEKSSRGQAKLEQRRQEEALERKKEEARRRRREVKRRLLEELASTPPRKSARLLLHTPRDAGPAASRPAALPTSRRVPAATLKLRRQPAMAPGVTGLRNLGNTCYMNSILQVLSHLQKFRECFLNLDPSKTEHLFPKATNGKTQLSGKPTNSSATELSLRNDRAEACEREGFCWNGRASISRSLELIQNKEPSSKHISLCRELHTLFRVMWSGKWALVSPFAMLHSVWSLIPAFRGYDQQDAQEFLCELLHKVQQELESEGTTRRILIPFSQRKLTKQVLKVVNTIFHGQLLSQVTCISCNYKSNTIEPFWDLSLEFPERYHCIEKGFVPLNQTECLLTEMLAKFTETEALEGRIYACDQCNSKRRKSNPKPLVLSEARKQLMIYRLPQVLRLHLKRFRWSGRNHREKIGVHVVFDQVLTMEPYCCRDMLSSLDKETFAYDLSAVVMHHGKGFGSGHYTAYCYNTEGGFWVHCNDSKLNVCSVEEVCKTQAYILFYTQRTVQGNARISETHLQAQVQSSNNDEGRPQTFS
Regarding B1, the binding result with CETN1-FLAG (human), with CETN2-FLAG (human), with USP44-FLAG-HA and in the experiment with CETN3-FLAG (human) was “binds” each time.

B2: USP49Long^C262A (enzyme, UniProt Q70CQ1 1-688)
chain: MDRCKHVGRLRLAQDHSILNPQKWCCLECATTESVWACLKCSHVACGRYIEDHALKHFEETGHPLAMEVRDLYVFCYLCKDYVLNDNPEGDLKLLRSSLLAVRGQKQDTPVRRGRTLRSMASGEDVVLPQRAPQGQPQMLTALWYRRQRLLARTLRLWFEKSSRGQAKLEQRRQEEALERKKEEARRRRREVKRRLLEELASTPPRKSARLLLHTPRDAGPAASRPAALPTSRRVPAATLKLRRQPAMAPGVTGLRNLGNTAYMNSILQVLSHLQKFRECFLNLDPSKTEHLFPKATNGKTQLSGKPTNSSATELSLRNDRAEACEREGFCWNGRASISRSLELIQNKEPSSKHISLCRELHTLFRVMWSGKWALVSPFAMLHSVWSLIPAFRGYDQQDAQEFLCELLHKVQQELESEGTTRRILIPFSQRKLTKQVLKVVNTIFHGQLLSQVTCISCNYKSNTIEPFWDLSLEFPERYHCIEKGFVPLNQTECLLTEMLAKFTETEALEGRIYACDQCNSKRRKSNPKPLVLSEARKQLMIYRLPQVLRLHLKRFRWSGRNHREKIGVHVVFDQVLTMEPYCCRDMLSSLDKETFAYDLSAVVMHHGKGFGSGHYTAYCYNTEGGFWVHCNDSKLNVCSVEEVCKTQAYILFYTQRTVQGNARISETHLQAQVQSSNNDEGRPQTFS
For B2, the binding result in the experiment with CETN1-FLAG (human), with CETN2-FLAG (human) and with CETN3-FLAG (human) was “binds” in each case.

B3: GFP-USP49Long (pEGFP-USP49Long) (enzyme, UniProt Q70CQ1 1-688)
chain: MDRCKHVGRLRLAQDHSILNPQKWCCLECATTESVWACLKCSHVACGRYIEDHALKHFEETGHPLAMEVRDLYVFCYLCKDYVLNDNPEGDLKLLRSSLLAVRGQKQDTPVRRGRTLRSMASGEDVVLPQRAPQGQPQMLTALWYRRQRLLARTLRLWFEKSSRGQAKLEQRRQEEALERKKEEARRRRREVKRRLLEELASTPPRKSARLLLHTPRDAGPAASRPAALPTSRRVPAATLKLRRQPAMAPGVTGLRNLGNTCYMNSILQVLSHLQKFRECFLNLDPSKTEHLFPKATNGKTQLSGKPTNSSATELSLRNDRAEACEREGFCWNGRASISRSLELIQNKEPSSKHISLCRELHTLFRVMWSGKWALVSPFAMLHSVWSLIPAFRGYDQQDAQEFLCELLHKVQQELESEGTTRRILIPFSQRKLTKQVLKVVNTIFHGQLLSQVTCISCNYKSNTIEPFWDLSLEFPERYHCIEKGFVPLNQTECLLTEMLAKFTETEALEGRIYACDQCNSKRRKSNPKPLVLSEARKQLMIYRLPQVLRLHLKRFRWSGRNHREKIGVHVVFDQVLTMEPYCCRDMLSSLDKETFAYDLSAVVMHHGKGFGSGHYTAYCYNTEGGFWVHCNDSKLNVCSVEEVCKTQAYILFYTQRTVQGNARISETHLQAQVQSSNNDEGRPQTFS
With B3, the binding result in the experiment with RPN1-FLAG (ribophorin 1) is recorded as “binds”.

B4: USP49Long^W158A (enzyme, UniProt Q70CQ1 1-688)
chain: MDRCKHVGRLRLAQDHSILNPQKWCCLECATTESVWACLKCSHVACGRYIEDHALKHFEETGHPLAMEVRDLYVFCYLCKDYVLNDNPEGDLKLLRSSLLAVRGQKQDTPVRRGRTLRSMASGEDVVLPQRAPQGQPQMLTALWYRRQRLLARTLRLAFEKSSRGQAKLEQRRQEEALERKKEEARRRRREVKRRLLEELASTPPRKSARLLLHTPRDAGPAASRPAALPTSRRVPAATLKLRRQPAMAPGVTGLRNLGNTCYMNSILQVLSHLQKFRECFLNLDPSKTEHLFPKATNGKTQLSGKPTNSSATELSLRNDRAEACEREGFCWNGRASISRSLELIQNKEPSSKHISLCRELHTLFRVMWSGKWALVSPFAMLHSVWSLIPAFRGYDQQDAQEFLCELLHKVQQELESEGTTRRILIPFSQRKLTKQVLKVVNTIFHGQLLSQVTCISCNYKSNTIEPFWDLSLEFPERYHCIEKGFVPLNQTECLLTEMLAKFTETEALEGRIYACDQCNSKRRKSNPKPLVLSEARKQLMIYRLPQVLRLHLKRFRWSGRNHREKIGVHVVFDQVLTMEPYCCRDMLSSLDKETFAYDLSAVVMHHGKGFGSGHYTAYCYNTEGGFWVHCNDSKLNVCSVEEVCKTQAYILFYTQRTVQGNARISETHLQAQVQSSNNDEGRPQTFS
Consider B4, for which the binding entry is recorded as “no binding” with CETN1-FLAG (human), “no binding” in the experiment with CETN2-FLAG (human) and “binds” with CETN3-FLAG (human).
